Experimental findings from ChEMBL document CHEMBL4888484, “Replenishing the malaria drug discovery pipeline: Screening and hit evaluation of the MMV Hit Generation Library 1 (HGL1) against asexual blood stage Plasmodium falciparum ,using a nano luciferase reporter read-out” (2022) are described below.

About 540 (0.36%) of roughly 150,000 compounds showed an effect of 50% or more. The list shows a part of the results.

This assay has as its system Plasmodium falciparum. Briefly: Primary screen in NF54 nanoGlo assay, in single point, at 2uM, 72h; a lower Z score goes with more inhibition. It counts as functional, Erythrocyte. The note with it: timepoint 72 hour.
Consider `CCn1nc(C(=O)N2CCN(C)CC2)c2c1CC[C@H](NC1Cc3ccccc3C1)C2`, for which the “% Inhibition” value is 1% and the Z score was -0.28.
With `C#Cc1ccc(CN2CCC[C@H](CCC(=O)N(C)C3CCN(C)CC3)C2)cc1`, the “% Inhibition” value is -2% and the Z score was 0.35.
In the same order, the values of `Cc1n[nH]c(C)c1Cn1cnc(-c2ccccc2)c1-c1ccc(C#CCO)cc1` are -11% and 1.08.
The matching figures for `COC(=O)c1ccnc(NC(=O)C[C@H]2CCCCN2C(C)=O)c1`: 8% and -1.03.
As to `C[C@H]1CN(C(=O)NCc2cccc(COC3CCOCC3)c2)CCO1`, the “% Inhibition” value is -4% and the Z score is on record as 0.83.
`CCCOC1(c2noc([C@@H]3CCCN3CCC)n2)CCCCC1`: the “% Inhibition” value amounted to 2% and the Z score is -0.36.
In the same order, the values of `CCn1nc(C(=O)N2CCCCC2)c2c1CC[C@H](NCc1cccc(C)n1)C2` are 4% and -0.77.
In the same order, the values of `CCCCN(C)C[C@@H]1OC[C@H](NC(=O)c2cccc(F)c2)[C@H]1O` are 29% and -3.41.
The matching figures for `Cc1noc(C(C)(C)NC(=O)Nc2ccnn2[C@@H](C)CC(C)C)n1`: -17% and 2.35.
In the case of `CCN(C(C)=O)c1nc(CN[C@H]2CCc3ncnn3C2)cs1`, the “% Inhibition” value is on record as -8% and the Z score worked out at 0.94.
Consider `Cc1cc(S(=O)(=O)Nc2nnc(CC3CCCC3)o2)c(C)o1`, for which the “% Inhibition” value stood at 0% and the Z score turned out to be 0.02.
In the case of `Cc1nc(-n2nc(C3CC3)cc2N)[nH]c(=O)c1C`, the “% Inhibition” value is given as 17% and the Z score is on record as -1.97.
Regarding `CC(C)(C)C(=O)N1C[C@H](c2nc(-c3ccc(F)cc3)no2)C2(CCOCC2)C1`, the “% Inhibition” value is listed as 4% and the Z score was -0.8.
As to `CCN(C(=O)Cn1cc(NC(C)=O)cn1)c1ccccc1`, the “% Inhibition” value is on record as -9% and the Z score came to 1.27.
Turning to `Cc1noc(C)c1C(=O)NCc1ccnn1C`, the “% Inhibition” value is reported as -11% and the Z score amounted to 1.36.
Consider `Cc1ccc(Br)cc1C(=O)N1CCCS(=O)(=O)CC1`, for which the “% Inhibition” value is -1% and the Z score worked out at 0.14.
In the case of `CC1(C#N)CN(C(=O)CC(F)(F)F)C1`, the “% Inhibition” value is -1% and the Z score worked out at 0.13.
As for `COc1ccc(NC(=O)N2CCC(CN(C/C(C)=C/c3ccccc3)C(=O)C[C@@H](C)CC(C)(C)C)CC2)cc1`, the “% Inhibition” value was -10% and the Z score was 0.93.
Regarding `CC12COC3(C#N)C(Br)(Br)C1CCC23C` (configuration not stated), the “% Inhibition” value was -1% and the Z score is on record as 0.15.
On to `O=C(c1cnccn1)N1CCCCCCn2c(nnc2-c2ccc(F)cc2)CC1`, for which the “% Inhibition” value is given as -12% and the Z score is listed as 1.52.
The matching figures for `C[C@]1(NC(=O)c2nn(Cc3ccccc3)c(=O)c3ccccc23)CCS(=O)(=O)C1`: -2% and 0.25.
Consider `COc1ccc2cc(C(=O)NCC3CCN(c4nccnc4C#N)CC3)[nH]c2c1`, for which the “% Inhibition” value is reported as -12% and the Z score came out at 1.7.
Take `Cc1ccccc1N1CCN(C(=O)C[C@@H]2NC(=O)NC2=O)CC1`: the “% Inhibition” value is reported as -1% and the Z score came to 0.07.
Consider `Cc1noc([C@H](C)N(C)C(=O)c2[nH]cnc2-c2ccccc2)n1`, for which the “% Inhibition” value is on record as -14% and the Z score came out at 2.34.
Take `CCN1CCN(C(=O)CCC2CCN(C(=O)Cc3ccc(OC)c(OC)c3)CC2)CC1`: the “% Inhibition” value is reported as 4% and the Z score is recorded as -0.57.
As to `CN(Cc1ccccc1)C(=O)c1cc2cc(N(C)S(C)(=O)=O)ccc2s1`, the “% Inhibition” value is reported as -16% and the Z score came to 2.05.
Turning to `c1ccc2c(c1)CCCCN2CCn1cncn1`, the “% Inhibition” value is reported as -9% and the Z score is recorded as 1.26.
Consider `CC(C)COC1CCN(C(=O)[C@H]2CCN(C)C(=O)C2)CC1`, for which the “% Inhibition” value is on record as -9% and the Z score was determined as 1.46.
In the same order, the values of `Cc1cc(OC(=O)c2nc3nccc(C)n3n2)cc(C)c1Cl` are -43% and 5.06.
For the compound `COC(=O)[C@@H]1CC[C@@H]1S(=O)(=O)Oc1cccc2cccnc12`, the “% Inhibition” value is 3% and the Z score is on record as -0.36.
On to `O=C(O)c1cccc(NC(=O)c2ccc3c(c2)C(=O)N(c2nccs2)C3=O)c1`, for which the “% Inhibition” value was -14% and the Z score is 1.91.
Consider `CCN(c1ccc2[nH]ccc2c1)S(=O)(=O)Cc1ccc(F)cc1`, for which the “% Inhibition” value came out at 35% and the Z score is -3.92.
`COc1ccc(CNc2ncccc2C(=O)N2CCOCC2)cc1`: the “% Inhibition” value is recorded as -12% and the Z score is recorded as 1.2.
The matching figures for `Cc1c(Br)c(C)n(NC(=O)c2cnn(Cc3ccccc3)c2)c(=O)c1C#N`: 31% and -4.43.
Turning to `CC(C)NC(=O)N(CC(=O)N1CCc2sccc2[C@@H]1COc1ccc(F)cc1)CC1CC1`, the “% Inhibition” value is -9% and the Z score is given as 1.82.
In the case of `Cc1ccccc1NC(=O)[C@H]1c2cccc[n+]2CC(=O)N1c1ccc2c(c1)OCO2`, the “% Inhibition” value is -9% and the Z score came out at 1.37.
Consider `CN(Cc1ncc(Cl)n1C)C1Cc2ccccc2C1`, for which the “% Inhibition” value is 8% and the Z score is on record as -1.04.
For the compound `C[C@@H](CO)NC(=O)[C@H]1CC[C@H](Cn2cnc3ccccc3c2=O)CC1`, the “% Inhibition” value is -12% and the Z score is 1.46.
Consider `Cc1cc(C(=O)NC[C@H]2Cc3ccccc3CO2)no1`, for which the “% Inhibition” value amounted to 14% and the Z score is on record as -1.57.
As for `CC(Oc1cccnc1)C(=O)N1CC(C)[S+]([O-])C(C)C1` (configuration not stated), the “% Inhibition” value is -1% and the Z score came out at 0.2.
The matching figures for `CC(C)c1noc([C@H]2CCCN(C(=O)c3cccc4c3CCC4=O)C2)n1`: -3% and 0.57.
